Tests used:
Type in all cases: in vivo
[1] = tested on: Puccinia recondita; assay: Test Example E: Brown rust on wheat; conditions: for Test E control value: Brown rust on wheat; for control value, Test E (brown rust on wheat): Table 7, Test E
[2] = tested on: Botrytis cinerea; assay: Test Example B: Gray mold on tomato; conditions: for Test B control value: Gray mold on tomato; for control value, Test B (gray mold on tomato): Table 7, Test B
[3] = tested on: Alternaia brassicicola; assay: Test Example C: Alternaria sooty spot on cabbage; conditions: for Test C control value: Alternaria sooty spot on cabbage; for control value, Test C (Alternaria sooty spot on cabbage): Table 7, Test C
[4] = tested on: Plasmopara viticola; assay: Test Example G: Downy mildew on vine; conditions: for Test G control value: Downy mildew on vine, 250 ppm sprayed, 7 to 10 days after inoculation; for control value, Test G (downy mildew on vine): 250 ppm sprayed (2.5 ml/pot) before inoculation, assessed 7 to 10 days after inoculation
[5] = tested on: Blumeria graminis f. sp. hordei; assay: Test Example D: Powdery mildew on barley; conditions: for Test D control value: Powdery mildew on barley; for control value, Test D (powdery mildew on barley): Table 7, Test D
[6] = class of control value, Table 7

| Structure (SMILES) | control value, Test E (brown rust on wheat) [1] | control value, Test B (gray mold on tomato) [2] | control value, Test C (Alternaria sooty spot on cabbage) [3] | control value, Test G (downy mildew on vine) [4] | control value, Test D (powdery mildew on barley) [5] | further results |
| --- | --- | --- | --- | --- | --- | --- |
| CCn1c(-c2c(F)cc(F)cc2F)c(-n2ncnc2Br)cc(Br)c1=O [Compound 46] | – | – | – | – | – | Test E control value [1]: H (H shows the control value more than 50%); Test B control value [2]: H (H shows the control value more than 50%); Test C control value [3]: H (H shows the control value more than 50%); Test G control value ([4]; 2.5 ml/pot): H (H shows the control value more than 50%); Test D control value [5]: H (H shows the control value more than 50%) |
| CCn1c(-c2ccc(F)cc2C)c(-n2cc(C)cn2)cc(Br)c1=O [Compound 370] | H (H shows the control value more than 50%) | H (H shows the control value more than 50%) | H (H shows the control value more than 50%) | L (L shows the control value of 50% or less) | H (H shows the control value more than 50%) | – |
| CCn1c(-c2ccc(C#N)cc2F)c(-n2cc(F)cn2)cc(Cl)c1=O [Compound 508] | – | – | – | – | – | Test E control value (brown rust on wheat) [1, 6]: H (H shows the control value more than 50%); Test B control value (gray mold on tomato) [2, 6]: L (L shows the control value of 50% or less); Test C control value (Alternaria sooty spot on cabbage) [3, 6]: H (H shows the control value more than 50%); Test G control value (downy mildew on vine) ([4]; 250 ppm spray, 2.5 ml/pot, investigated 7 to 10 days after inoculation): L (L shows the control value of 50% or less); Test D control value (powdery mildew on barley) [5, 6]: L (L shows the control value of 50% or less) |
| Cc1cnn(-c2cc(Cl)c(=O)n(CC(F)F)c2-c2ccccc2Cl)c1Cl [Compound 229] | H (H shows the control value more than 50%) | H (H shows the control value more than 50%) | H (H shows the control value more than 50%) | L (L shows the control value of 50% or less) | H (H shows the control value more than 50%) | – |
| O=c1c(Cl)cc(-n2cc(Cl)cn2)c(-c2ccc(F)cc2Cl)n1CC(F)F [Compound 234] | H (H shows the control value more than 50%) | H (H shows the control value more than 50%) | H (H shows the control value more than 50%) | L (L shows the control value of 50% or less) | H (H shows the control value more than 50%) | – |
| CCn1c(-c2c(F)cc(F)cc2F)c(-c2ocnc2Br)cc(Br)c1=O [Compound 97] | – | – | – | – | – | Test E control value [1]: H (H shows the control value more than 50%); Test B control value [2]: H (H shows the control value more than 50%); Test C control value [3]: H (H shows the control value more than 50%); Test G control value ([4]; 2.5 ml/pot): H (H shows the control value more than 50%); Test D control value [5]: H (H shows the control value more than 50%) |
| O=c1c(Br)cc(-n2cc(Cl)cn2)c(-c2ccc(F)cc2Br)n1CC(F)F [Compound 275] | H (H shows the control value more than 50%) | H (H shows the control value more than 50%) | H (H shows the control value more than 50%) | L (L shows the control value of 50% or less) | H (H shows the control value more than 50%) | – |
| CCn1c(-c2ccc(F)cc2C)c(-n2ncc(C)c2Cl)cc(Br)c1=O [Compound 371] | H (H shows the control value more than 50%) | H (H shows the control value more than 50%) | H (H shows the control value more than 50%) | H (H shows the control value more than 50%) | H (H shows the control value more than 50%) | – |
